This passage reports cell count results from the supplement of paper PMC4604168 (melanoma cell lines).

The structures appear in SMILES notation. Some of the results follow. Repeats are few or missing, and single values can be far off.
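Note: cells treated in 1,536-well plates, then fixed and DAPI-stained, with nuclei counted from automated high-throughput microscope images.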

In this test the test system is UACC62. The experiment in a line: cell count relative to DMSO control; melanoma cells; higher = more viable cells. The following applies: library dose: standard library concentration; 72 h.
The compound `N#CC[C@H](C1CCCC1)n1cc(-c2ncnc3[nH]ccc23)cn1` [ruxolitinib] + Cn1cncc1[C@@](N)(c1ccc(Cl)cc1)c1ccc2c(c1)c(-c1cccc(Cl)c1)cc(=O)n2C [tipifarnib] (first compound 5 µM, partner dose 0.05 µM) registered a cell count of 77.9%.

Compound `CC[C@]1(O)C[C@H]2CN(CCc3c([nH]c4ccccc34)[C@@](C(=O)OC)(c3cc4c(cc3OC)N(C=O)[C@H]3[C@@](O)(C(=O)OC)[C@H](OC(C)=O)[C@]5(CC)C=CCN6CC[C@]43[C@@H]65)C2)C1` [vincristine] + Cc1cc(Nc2cc(N3CCN(C)CC3)nc(/C=C/c3ccccc3)n2)n[nH]1 [ENMD2076] (first compound 0.0005 µM, partner dose 0.2 µM) gave a cell count of 53.4%.

`Cc1cc(Nc2cc(N3CCN(C)CC3)nc(Sc3ccc(NC(=O)C4CC4)cc3)n2)n[nH]1` [Tozasertib] + CC(C)CCN1c2nc(Nc3cc(F)c(O)c(F)c3)ncc2N(C)C(=O)C1C [BID1870] (first compound 0.03 µM, partner dose 1 µM) yielded a cell count of 72%.

Take `CC[C@]1(O)C[C@H]2CN(CCc3c([nH]c4ccccc34)[C@@](C(=O)OC)(c3cc4c(cc3OC)N(C=O)[C@H]3[C@@](O)(C(=O)OC)[C@H](OC(C)=O)[C@]5(CC)C=CCN6CC[C@]43[C@@H]65)C2)C1` [vincristine] + CN(NC(=O)CC(=O)NN(C)C(=S)c1ccccc1)C(=S)c1ccccc1 [STA4783] (first compound 0.0005 µM, partner dose 0.03 µM): the cell count turned out to be 44.7%.

Regarding `CC[C@]1(O)C[C@H]2CN(CCc3c([nH]c4ccccc34)[C@@](C(=O)OC)(c3cc4c(cc3OC)N(C=O)[C@H]3[C@@](O)(C(=O)OC)[C@H](OC(C)=O)[C@]5(CC)C=CCN6CC[C@]43[C@@H]65)C2)C1` [vincristine] + CO[C@@H]1[C@H](N(C)C(=O)c2ccccc2)C[C@H]2O[C@]1(C)n1c3ccccc3c3c4c(c5c6ccccc6n2c5c31)C(=O)NC4 [Midostaurin] (first compound 0.0005 µM, partner dose 0.4 µM), the cell count was determined as 68.2%.

In the case of `N#CC[C@H](C1CCCC1)n1cc(-c2ncnc3[nH]ccc23)cn1` [ruxolitinib] + CN1CCN(c2ccc3nc(-c4c(N)c5c(F)cccc5[nH]c4=O)[nH]c3c2)CC1 [Dovitinib] (first compound 5 µM, partner dose 0.5 µM), the cell count was 92.4%.

`N#CC[C@H](C1CCCC1)n1cc(-c2ncnc3[nH]ccc23)cn1` [ruxolitinib] + CN(C)S(=O)(=O)c1ccc2c(c1)/C(=C/c1cc3c([nH]1)CCCC3)C(=O)N2 [SU6656] (first compound 5 µM, partner dose 2 µM) registered a cell count of 83.1%.

In turn, `Cc1cc(Nc2cc(N3CCN(C)CC3)nc(Sc3ccc(NC(=O)C4CC4)cc3)n2)n[nH]1` [Tozasertib] + O=C(Nc1cccc(Cl)c1)Nc1ncc(CCNc2ncnc3ccsc23)s1 [SNS314] (first compound 0.03 µM, partner dose 0.004 µM) had a cell count of 67.7%.

The compound `CC[C@]1(O)C[C@H]2CN(CCc3c([nH]c4ccccc34)[C@@](C(=O)OC)(c3cc4c(cc3OC)N(C=O)[C@H]3[C@@](O)(C(=O)OC)[C@H](OC(C)=O)[C@]5(CC)C=CCN6CC[C@]43[C@@H]65)C2)C1` [vincristine] + COc1ccc(Cl)c(Nc2nc3ccccc3nc2NS(=O)(=O)c2cccc(NC(=O)C(C)(C)N)c2)c1 [XL147] (first compound 0.0005 µM, partner dose 4 µM) yielded a cell count of 68.5%.

Compound `CC[C@]1(O)C[C@H]2CN(CCc3c([nH]c4ccccc34)[C@@](C(=O)OC)(c3cc4c(cc3OC)N(C=O)[C@H]3[C@@](O)(C(=O)OC)[C@H](OC(C)=O)[C@]5(CC)C=CCN6CC[C@]43[C@@H]65)C2)C1` [vincristine] + CO[C@H]1C[C@@H]2CC[C@@H](C)[C@@](O)(O2)C(=O)C(=O)N2CCCC[C@H]2C(=O)O[C@H]([C@H](C)C[C@@H]2CC[C@@H](OCCO)[C@H](OC)C2)CC(=O)[C@H](C)/C=C(\C)[C@@H](O)[C@@H](OC)C(=O)[C@H](C)C[C@H](C)/C=C/C=C/C=C/1C [everolimus] (first compound 0.0005 µM, partner dose 0.1 µM) registered a cell count of 52.8%.

`N#CC[C@H](C1CCCC1)n1cc(-c2ncnc3[nH]ccc23)cn1` [ruxolitinib] + c1cc(-c2cnn3cc(-c4ccc(OCCN5CCCCC5)cc4)cnc23)ccn1 [Dorsomorphin] (first compound 5 µM, partner dose 2 µM) yielded a cell count of 90.8%.

Take `Cc1cc(Nc2cc(N3CCN(C)CC3)nc(Sc3ccc(NC(=O)C4CC4)cc3)n2)n[nH]1` [Tozasertib] + C[C@@H]1CCN(C(=O)CC#N)C[C@@H]1N(C)c1ncnc2[nH]ccc12 [CP690550] (first compound 0.03 µM, partner dose 5 µM): the cell count amounted to 89.9%.

With `N#CC[C@H](C1CCCC1)n1cc(-c2ncnc3[nH]ccc23)cn1` [ruxolitinib] + O=c1[nH]nc(Sc2ncc([N+](=O)[O-])s2)n1-c1ccc2c(c1)OCCO2 [BI78D3] (first compound 5 µM, partner dose 1 µM), the cell count was 78.7%.

`N#CC[C@H](C1CCCC1)n1cc(-c2ncnc3[nH]ccc23)cn1` [ruxolitinib] + OCCn1cc(-c2cnc3nnn(Cc4ccc5ncccc5c4)c3n2)cn1 [PF04217903] (first compound 5 µM, partner dose 5 µM): the cell count is 81.9%.

`CC[C@]1(O)C[C@H]2CN(CCc3c([nH]c4ccccc34)[C@@](C(=O)OC)(c3cc4c(cc3OC)N(C=O)[C@H]3[C@@](O)(C(=O)OC)[C@H](OC(C)=O)[C@]5(CC)C=CCN6CC[C@]43[C@@H]65)C2)C1` [vincristine] + O=C(CCCCCCC(=O)Nc1ccccc1)NO [vorinostat] (first compound 0.0005 µM, partner dose 0.4 µM): the cell count was 62.9%.

As to `N#CC[C@H](C1CCCC1)n1cc(-c2ncnc3[nH]ccc23)cn1` [ruxolitinib] + O=C1NC(=O)/C(=C/c2ccc(-c3ccc(F)cc3O)o2)S1 [AS252424] (first compound 5 µM, partner dose 5 µM), the cell count amounted to 126%.

Compound `CC[C@]1(O)C[C@H]2CN(CCc3c([nH]c4ccccc34)[C@@](C(=O)OC)(c3cc4c(cc3OC)N(C=O)[C@H]3[C@@](O)(C(=O)OC)[C@H](OC(C)=O)[C@]5(CC)C=CCN6CC[C@]43[C@@H]65)C2)C1` [vincristine] + O=C1NC(=O)/C(=C/c2ccc(-c3ccc(F)cc3O)o2)S1 [AS252424] (first compound 0.0005 µM, partner dose 5 µM) had a cell count of 76.4%.

Compound `N#CC[C@H](C1CCCC1)n1cc(-c2ncnc3[nH]ccc23)cn1` [ruxolitinib] + C[C@@H](Oc1cc(-c2cnn(C3CCNCC3)c2)cnc1N)c1c(Cl)ccc(F)c1Cl [Crizotinib] (first compound 5 µM, partner dose 1 µM) registered a cell count of 63.1%.

For the compound `Cc1cc(Nc2cc(N3CCN(C)CC3)nc(Sc3ccc(NC(=O)C4CC4)cc3)n2)n[nH]1` [Tozasertib] + NCC(=O)Nc1ccc(-n2nc(C(F)(F)F)cc2-c2ccc3c(ccc4ccccc43)c2)cc1 [OSU03012] (first compound 0.03 µM, partner dose 5 µM), the cell count was 75.4%.

On to `Cc1cc(Nc2cc(N3CCN(C)CC3)nc(Sc3ccc(NC(=O)C4CC4)cc3)n2)n[nH]1` [Tozasertib] + Cc1cc([N+](=O)[O-])ccc1NS(=O)(=O)c1cc(Cl)ccc1Cl [FH535] (first compound 0.03 µM, partner dose 5 µM), for which the cell count was 80%.

For the compound `N#CC[C@H](C1CCCC1)n1cc(-c2ncnc3[nH]ccc23)cn1` [ruxolitinib] + CCN(CC)CCCCNc1ncc2cc(-c3cc(OC)cc(OC)c3)c(NC(=O)NC(C)(C)C)nc2n1 [PD173074] (first compound 5 µM, partner dose 0.5 µM), the cell count is 117%.

For the compound `CC[C@]1(O)C[C@H]2CN(CCc3c([nH]c4ccccc34)[C@@](C(=O)OC)(c3cc4c(cc3OC)N(C=O)[C@H]3[C@@](O)(C(=O)OC)[C@H](OC(C)=O)[C@]5(CC)C=CCN6CC[C@]43[C@@H]65)C2)C1` [vincristine] + NCC(=O)Nc1ccc(-n2nc(C(F)(F)F)cc2-c2ccc3c(ccc4ccccc43)c2)cc1 [OSU03012] (first compound 0.0005 µM, partner dose 5 µM), the cell count was 68%.

In turn, `N#CC[C@H](C1CCCC1)n1cc(-c2ncnc3[nH]ccc23)cn1` [ruxolitinib] + Cc1nc(Nc2ncc(C(=O)Nc3c(C)cccc3Cl)s2)cc(N2CCN(CCO)CC2)n1 [dasatanib] (first compound 5 µM, partner dose 0.02 µM) displayed a cell count of 82.4%.

For the compound `CC[C@]1(O)C[C@H]2CN(CCc3c([nH]c4ccccc34)[C@@](C(=O)OC)(c3cc4c(cc3OC)N(C=O)[C@H]3[C@@](O)(C(=O)OC)[C@H](OC(C)=O)[C@]5(CC)C=CCN6CC[C@]43[C@@H]65)C2)C1` [vincristine] + O=C(O)c1ccc(-c2c[nH]c3ncc(-c4ccccc4)cc23)cc1C1CCCC1 [GSK650394] (first compound 0.0005 µM, partner dose 0.8 µM), the cell count is 81.6%.
